For one compound, mutagenic activity results are on record in publication PMC9681820, “A PDE10A inhibitor CPL500036 is a novel agent modulating striatal function devoid of most neuroleptic side-effects” (Frontiers in Pharmacology, 2022).

The subject of the series is Salmonella typhimurium (TA98, TA100, TA1535, and TA1537) and Escherichia coli (WP2 uvrA). The series can be described thus: Ames test, all strains (overall result). The settings on record: 0.025 mg/ml–25 mg/ml, in the presence and absence of metabolizing enzymes. Background: The Ames test detects mutagens through reverse mutation in bacteria.

Take `Cc1ncc(C)n2nc(-c3ccn4cc(-c5ccccc5)nc4n3)nc12` [CPL500036, 7-[5,8-Dimethyl-(1,2,4)triazolo (1,5-a)pyrazin-2-yl]-2-phenylimidazo (1,2-a) pyrimidine]: the mutagenic activity entry is reported as “No mutagenic activity”.
